Source: PMC4336329 (PLoS ONE, 2015)
The campaign covered roughly 310,000 compounds. About 2,200 (0.71%) showed an effect of 50% or more. Effects have a minus sign here. Some of the results follow.

biological target: human ether-à-go-go-related gene (hERG) potassium channel (human, UniProt Q12809); assay: primary screen, population patch clamp on CHO cells stably expressing hERG
Sequence (Q12809 whole entry, looked up): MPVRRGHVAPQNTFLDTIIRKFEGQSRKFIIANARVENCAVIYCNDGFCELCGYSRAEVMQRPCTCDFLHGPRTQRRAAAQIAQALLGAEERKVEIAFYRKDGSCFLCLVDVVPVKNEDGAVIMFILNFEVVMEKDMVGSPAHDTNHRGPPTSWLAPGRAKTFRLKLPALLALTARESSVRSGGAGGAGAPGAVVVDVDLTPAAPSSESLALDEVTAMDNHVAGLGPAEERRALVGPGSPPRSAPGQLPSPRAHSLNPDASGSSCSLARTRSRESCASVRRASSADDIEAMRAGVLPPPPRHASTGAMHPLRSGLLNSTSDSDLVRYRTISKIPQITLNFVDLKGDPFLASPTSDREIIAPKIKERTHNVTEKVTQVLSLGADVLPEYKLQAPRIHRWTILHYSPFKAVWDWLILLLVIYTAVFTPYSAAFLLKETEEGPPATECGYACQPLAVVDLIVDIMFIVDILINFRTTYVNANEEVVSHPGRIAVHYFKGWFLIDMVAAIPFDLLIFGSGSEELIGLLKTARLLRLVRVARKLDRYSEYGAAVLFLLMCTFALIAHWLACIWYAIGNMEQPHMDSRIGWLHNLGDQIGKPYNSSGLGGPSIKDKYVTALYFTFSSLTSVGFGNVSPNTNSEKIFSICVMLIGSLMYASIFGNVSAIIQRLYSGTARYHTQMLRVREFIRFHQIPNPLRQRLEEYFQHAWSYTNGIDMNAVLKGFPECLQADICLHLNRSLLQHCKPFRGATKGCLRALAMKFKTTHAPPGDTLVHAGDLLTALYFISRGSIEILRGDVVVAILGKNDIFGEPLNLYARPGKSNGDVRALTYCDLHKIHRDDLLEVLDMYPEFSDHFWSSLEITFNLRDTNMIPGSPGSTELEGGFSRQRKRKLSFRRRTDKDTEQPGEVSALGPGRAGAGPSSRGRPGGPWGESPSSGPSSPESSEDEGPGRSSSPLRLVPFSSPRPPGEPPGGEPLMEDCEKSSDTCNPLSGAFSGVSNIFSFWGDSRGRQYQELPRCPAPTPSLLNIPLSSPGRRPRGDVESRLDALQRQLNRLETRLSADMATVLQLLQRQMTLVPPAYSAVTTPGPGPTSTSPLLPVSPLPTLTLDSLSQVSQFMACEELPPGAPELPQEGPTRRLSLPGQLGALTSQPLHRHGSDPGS

Compound	hERG current change (%, negative = inhibition) at 1uM [%]
COc1ccc(C2C(C(=O)c3ccc(C)o3)=C(O)C(=O)N2CC2CCCO2)cc1OC (stereo not shown)	17.5
O=C(N/N=C\c1c(O)ccc2ccccc12)c1cncc(Br)c1	11.2
CCOC(=O)CN1C(=O)S/C(=C/c2ccco2)C1=O	13.3
COc1cccc(NC(=O)N(CCN(C)C)C(C)c2cccnc2)c1 (stereo not shown)	-0.272
O=C(NCc1cccs1)C1CCC(CNS(=O)(=O)c2ccccc2)CC1 (stereo not shown)	10.3
O=C(Cc1ccc(Br)c2ccccc12)N/N=C/c1ccccn1	2.35
Cc1ccc(-c2cc(C(=O)Nc3ccc(S(=O)(=O)Nc4onc(C)c4C)cc3)c3ccccc3n2)cc1	10.9
Cc1cccc(C(=O)NNC(=O)c2ccco2)c1	14.2
Cc1ccccc1C(=O)/C=C1/SCC(=O)N1C	10.4
COCCNC(=O)C1CC(c2ccccc2C(F)(F)F)=NO1 (stereo not shown)	14.7
O=C(NCCN1CCCCC1)Nc1ccccc1F	13.2
O=C(CN1CCN(c2ccccc2F)CC1)Nc1cccnc1Cl	4.52
Cc1ccc(NC(=O)/C(=C/c2ccco2)c2ccccc2)c(C)c1	10.1
CS(=O)(=O)N1N=C(c2ccco2)CC1c1ccccc1Cl (stereo not shown)	9.15
CCN(CC)/C(Sc1ccccc1)=C(/C(Cl)=C(Cl)Cl)[N+](=O)[O-]	14.7
Cn1sc(NC(=O)c2cccc(Cl)c2)nc1=O	-2.42
CCCCn1c(N)c(N(Cc2ccccc2OC)C(=O)COc2cc(C)ccc2Cl)c(=O)[nH]c1=O	10.8
COc1ccnc(CS(=O)c2nc3cc(C(O)(F)F)ccc3[n-]2)c1OC.[Na+] (stereo not shown)	-5.82
COc1cc(NC(=O)CN2CCN(Cc3ccc4c(c3)OCO4)CC2)cc(OC)c1.O=C(O)C(=O)O	-9.16
O=C(Nc1ncc(Cc2cccc([N+](=O)[O-])c2)s1)c1ccco1	-0.332
CCOc1nc(NCc2ccco2)nc(Nc2ccc(OC)cc2)n1	1.91
Cc1cc(NS(=O)(=O)c2ccc(NC(=O)C(F)(F)F)cc2)nc(C)n1	18.8

Compound	hERG current change (%, negative = inhibition) at 1uM [%]
Cc1ccc[n+](CC(=O)c2ccccc2)c1.[Br-]	12.2
COc1ccc(S(=O)(=O)N2CCCCC2)cc1NC(=O)CSc1ncnc2ccccc12	-15
CCC(C)N1C(=O)/C(=C\c2cnc(N(C)C)nc2)C(=O)NC1=S (stereo not shown)	11
CCNc1ccc(S(=O)(=O)N(C)C)cc1NCC(=O)Nc1ccccc1Cl	5.76
COc1cc(CN2CCN(CCCc3ccccc3)C(CCO)C2)cc(OC)c1O (stereo not shown)	-11.8
Cc1ccc2cccc(OCC(=O)Nc3cccc(S(=O)(=O)N4CCCC4)c3)c2n1	5.26
COC(=O)c1cc(CNC(=O)Cc2ccsc2)ccc1OC	15.3
O=C(NNS(=O)(=O)c1ccccc1)c1cccs1	12.2
C=CCn1c(=O)c(C(=O)NCCc2ccccc2)c(O)c2ccccc21	6.41
COC(=O)c1ccc(COc2ccc(/C=N/N3CCN(C)CC3)cc2)cc1	6.64
O=C(Oc1ccc(OC(=O)c2ccncc2)cc1)c1ccncc1	0.316
Nc1ccc(C(=O)N2N=C(c3ccc(F)cc3)CC2(O)C(F)(F)F)cc1 (stereo not shown)	11.7
COc1ccc(N=Cc2c(O)cc(C)oc2=O)cc1	4.5
O=[N+]([O-])c1ccccc1Oc1ccc(C(F)(F)F)cn1	5.66
CCC(=NCCCn1ccnc1)c1c(O)n(-c2ccccc2)c(=O)[nH]c1=O	10.5
Cc1ccc(N(C)C(=O)c2cc(S(=O)(=O)N3CCc4ccccc43)cn2C)cc1	13.4
CCOc1ccc(S(=O)(=O)NCCC(=O)N2CC=C(c3ccccc3)CC2)cc1	13.9
CCn1cc(CCC(=O)NCc2cccc(OC)c2OC)c2ccccc21	23.5
O=C(CSc1nnc(CNC(=O)C23CC4CC(CC(C4)C2)C3)n1-c1ccccc1)Nc1ccccc1	9.14
COC(=O)/C(=C\Nc1cccc(Cl)c1C)c1ncc(C(F)(F)F)cc1Cl	10.5
CCc1ccccc1S(=O)(=O)Cc1ccc(C(=O)NC2CCCC2)o1	13.1
Cc1ccc(NC2CCCN(C(=O)c3ccoc3C)C2)cc1C (stereo not shown)	7.35

Compound	hERG current change (%, negative = inhibition) at 1uM [%]
CCOc1ccccc1NC(=O)CCS(=O)(=O)c1cccs1	13
Cc1cccc(-c2c3c(=O)n(C)c(=O)n(C)c3cn2-c2ccc(O)cc2)c1	13.8
Cc1nc(N2CCN(Cc3nc4ccccc4[nH]3)CC2)c2oc3ccccc3c2n1	-24.1
O=C(NCCN1CCOCC1)C(=O)NCC1OCCN1C(=O)c1ccc(Cl)cc1 (stereo not shown)	14.2
CCOc1cc(/C=N/NC(N)=O)cc(Br)c1OCc1ccccc1	8.87
Cc1c(S(=O)(=O)N2CCCCC2)c(=O)n(C)c(=O)n1C	2.83
Cc1cccc(Sc2nc(-c3ccccc3)ccc2C#N)c1	7.37
CCOc1cc(/C=N/Nc2nc(C)cc(=O)[nH]2)ccc1O	14.4
Clc1ccc(-c2ccc(/C=N/Nc3nncc(-c4ccccc4)n3)o2)cc1	13.4
COc1ccc(O)c(C2(O)C(=O)c3ccccc3C2=O)c1	14.2
CN1CCN(C(=O)CCn2c(=O)c3cccn3c3cccnc32)CC1	6.03
COc1ccc(CC(=O)O/N=C(\N)Cc2ccc(OC)c(OC)c2)cc1	9.86
O=C(N/N=C\c1cc2c(cc1[N+](=O)[O-])OCO2)c1cccs1	11.2
CCN(CC)S(=O)(=O)c1ccc2nc(NC(=O)c3cccs3)sc2c1	9.43
CC(N=Cc1c(O)n(C2CC2)c(=S)[nH]c1=O)c1ccccc1 (stereo not shown)	16.9
Cc1nc2c(o1)CCc1ccccc1C2N1CCN(C)CC1.O=C([O-])/C=C\C(=O)[O-] (stereo not shown)	15.1
Cc1sc2nc(CN3CCCC3)nc(N3CCN(S(=O)(=O)c4ccccc4)CC3)c2c1C	-19.4
CC(=O)c1ccc(NC(=O)c2cn(-c3ccccc3)nc2-c2ccncc2)cc1	-5.85
COc1cccc(CNc2ccc3[nH]c(=O)[nH]c3c2)c1OCc1ccccc1	15.8
Cc1ccc(NP(=O)(Oc2ccccc2F)Oc2ccccc2F)cc1C	15.4
CCS(=O)(=O)N1CCCC(C(=O)NC2CCCC2)C1 (stereo not shown)	-4.02
CCNC(=S)Nc1ccc(OCc2nc3ccccc3s2)cc1	18.1

Compound	hERG current change (%, negative = inhibition) at 1uM [%]
CC(=O)c1c(C)[nH]c(C)c1C(C)=O	8.49
Nc1nc(-c2c[nH]c3ccccc23)cs1	13.7
COc1ccc(OC)c(N/C=C2/CCCCC2=O)c1	-3.67
CCC(=O)Nc1cc(-c2cc3ccccc3oc2=O)ccc1OC	10.6
COc1ccc(N=C2SC(CC(=O)Nc3ccccc3)C(=O)N2Cc2ccccn2)cc1 (stereo not shown)	5.54
O=S(=O)(Nc1ccc2cn[nH]c2c1)c1ccccc1	3.04
CCOC(=O)N1CCN(CC(=O)Nc2c(C(=O)OC)[nH]c3cc(C)ccc23)CC1	-6.12
CCOC(=O)Cc1cc(=O)c2cc(C)ccc2[nH]1	14.1
CC(=O)NN1C(=O)/C(=C\c2ccc(O)cc2)SC1=S	6.7
O=C(NC1(C(F)(F)F)N=C(c2ccccc2)NC1=O)c1ccccc1F (stereo not shown)	10.6
O=C(Cn1cccc1C(=O)c1ccccc1)NCCc1ccccc1	18.2
COc1ccccc1/C=C1\SC(=S)N(C(C(=O)O)c2ccccc2)C1=O (stereo not shown)	-7.25
O=[N+]([O-])c1ccc(S(=O)(=O)Nc2ccc(-c3ccc(N4CCOCC4)nn3)cc2)cc1	3.23
COC(=O)c1c(N)sc(C(=O)N2CCOCC2)c1C	6.5
CCc1cccc(CC)c1NC(=O)C1CC(=O)N(c2ccc3c(c2)OCCO3)C1 (stereo not shown)	23.2
CCCCCn1c(=O)[nH]c2cc(C(=O)N3CCN(c4ccccc4F)CC3)ccc2c1=O	12.2
O=C(O)/C=C\C(=O)Nc1ccc(Oc2ccccc2)cc1	11.6
CN(C)S(=O)(=O)c1cc(NC(=O)COC(=O)/C=C/c2ccco2)ccc1Cl	6.25
Cc1c(NC(=O)c2ccc(S(=O)(=O)N3CCOCC3)cc2)cccc1[N+](=O)[O-]	7.56
CCn1c(SCC(=O)NC(=O)NCc2ccco2)nnc1-c1cccs1	10
Cc1ccccc1NC(=O)Cc1nc(COC(=O)COc2cccc(C)c2C)cs1	18.1
COc1cccc(CCN2C(=O)C(=O)N([C@@H](CNCc3ccccc3)Cc3ccccc3F)C[C@@H]2C(C)(C)C)c1	4.08
